# The list shows a part of the results. At the low end of the ranking the order means little.
# Target: T1, GST-Rok (full length) (UniProt O34857)
# T1 sequence: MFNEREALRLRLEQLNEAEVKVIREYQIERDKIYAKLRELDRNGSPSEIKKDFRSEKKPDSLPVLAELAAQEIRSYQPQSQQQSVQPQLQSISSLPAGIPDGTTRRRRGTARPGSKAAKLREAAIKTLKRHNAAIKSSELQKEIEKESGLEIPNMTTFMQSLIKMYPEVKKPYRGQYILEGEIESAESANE
# Experiment: protein binding microarray;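 further: rank score from −0.5 (least bound) to 0.5 (best bound)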
# Settings: Rok is a gene silencer of Bacillus subtilis; high values mean tight binding; most listed sequences are background and not binding sites; double strand, one strand shown
row,Sequence,binding signal [E-score]
1,AAGCCCTC,-0.331
2,CGCTTAGA,-0.0374
3,AAGGCCAA,-0.342
4,ATCAAAGC,0.11
5,GCAACACC,-0.07
6,TGCTTACA,-0.0637
7,GGATTCCA,-0.154
8,GGCTGCCA,-0.271
9,GCACAGAA,0.0896
10,CTCCACGA,-0.0325
11,AGATGGAT,0.0425
12,GTGCCTTA,-0.0209
13,GCCTCAAC,-0.0374
14,GAAACTGA,0.0137
15,AGGAACAT,0.0116
16,CTAGTTTA,0.383
17,GTTGATGA,0.0198
18,ACTCCACG,-0.0917
19,AAATGTGT,0.198
20,ACGCCACG,-0.16
21,GCGCCGCC,-0.453
22,GGTGCACA,-0.0671
23,GTCGATAA,0.104
24,CAGCAGAC,-0.0507
25,ACAGGCCC,-0.122

row,Sequence,binding signal [E-score]
1,ACCTACCA,0.248
2,CGGGTTTC,-0.216
3,CAGAACGC,0.056
4,AAGTACCG,0.119
5,GCCTGTAC,-0.0711
6,CGCAACTC,-0.103
7,ACGGACAA,-0.0785
8,CGGCGAAC,0.0581
9,AATAAAGC,0.0306
10,GCTGTTAA,0.000796
11,CTCAGATC,-0.087
12,GGTTGCAC,-0.126
13,ACCGAACA,-0.174
14,CAGTAGTC,-0.166
15,ATCAACAT,0.0335
16,AACATGCC,-0.0433
17,CAGTGACG,-0.119
18,ACTGACTG,-0.161
19,CTATATCA,0.231
20,CGTCGTCA,-0.141
21,CTTGACTC,-0.325
22,GCCTGTCA,-0.156
23,ACTCACGA,-0.0539
24,CATGTAAC,0.145
25,AATTCAAA,0.0223

row,Sequence,binding signal [E-score]
1,CACTTGGC,-0.0702
2,ATAGGTCG,0.164
3,GGTGTAGA,0.196
4,AGCTACCC,-0.139
5,AAAACCCA,0.0227
6,CAACTAAC,0.21
7,ACATTTCT,0.31
8,GAATGATC,-0.161
9,GACGCCAA,-0.212
10,ACTACGTG,-0.0152
11,CAAGCTAG,0.201
12,CGACCGAG,-0.237
13,GACTCGGA,-0.0776
14,AGCGCCCG,-0.274
15,TCCCGAGA,-0.101
16,ATAGCATG,0.154
17,AAGTAAAT,0.303
18,ATGATGGC,-0.0543
19,ACGGGCTA,-0.0217
20,CCGTTGTC,-0.0545
21,AGACCCTG,-0.348
22,ACTCGGGA,-0.117
23,AAGCGGTC,-0.348
24,CGGCATGA,-0.101
25,AGTCGACG,-0.0968

row,Sequence,binding signal [E-score]
1,GCTCCGCC,-0.368
2,ACGTTCTG,0.0265
3,ATGGAGTC,0.045
4,CTTACAAG,-0.114
5,TCAGCCGA,-0.0625
6,CTGCCTGA,-0.0653
7,GCAGGCAC,-0.205
8,TCATCGCA,0.0709
9,AAATTGGA,0.126
10,ATTGGTGC,0.0963
11,AACATAGG,0.0767
12,TCACTACA,0.0227
13,ACTTAGAC,-0.215
14,TAACGGGA,0.0692
15,CACCGTGA,-0.145
16,GAAACGGA,-0.132
17,CGAAGCAA,-0.114
18,CTGAATAA,0.213
19,CGACCTCA,-0.296
20,ACCTCCCT,-0.354
21,ACCTCCCA,-0.188
22,AGGGGCGC,-0.258
23,CCAAGATC,-0.0111
24,TCACATAA,0.156
25,GGATTGCA,0.0499

row,Sequence,binding signal [E-score]
1,ATGCAGGA,0.0987
2,GTATCGCA,0.0843
3,TGATGGAA,0.0673
4,CGGCACGC,-0.112
5,CCTTCCCA,-0.344
6,AGAGATCT,0.012
7,CAATACCA,0.139
8,ACCGGGAA,-0.258
9,ACCGCCGG,-0.178
10,GGAACGCC,-0.321
11,TCCTGGCA,-0.0252
12,CAGAGTTC,-0.0177
13,GGGCGTAA,-0.158
14,ATTTGGCC,-0.00123
15,CCAAACGC,-0.138
16,TCCAGAAA,-0.00865
17,CGCCATTC,-0.0796
18,TAATGCCA,-0.00233
19,CAACGGCA,-0.0596
20,ATAGCAGC,-0.00314
21,TAATAAAA,0.264
22,CGACCCGC,-0.315
23,GCCTGTCC,-0.196
24,AAACTCGA,-0.101
25,ACTAGGAC,-0.0121

row,Sequence,binding signal [E-score]
1,AGGGCAAT,-0.214
2,ACGCCAAA,-0.161
3,AGATGAAG,-0.142
4,GAAATTCC,0.0555
5,AGACGCCG,-0.261
6,CAATGTAG,0.265
7,ACCGACGA,-0.132
8,CTTCGGGA,-0.224
9,CCAAGTAG,0.236
10,CGGTGTAG,0.146
11,AGCGAATA,0.00411
12,CTGTTGTA,0.135
13,CCTATGGA,-0.0907
14,CTGTAAGA,0.0404
15,AGTCCAGA,0.00806
16,CACAACAG,-0.173
17,AGCGGCTC,-0.196
18,CCCGATCG,-0.0661
19,GCGCGCGA,0.176
20,AGAGCGCT,0.0771
21,CACTTAGA,-0.0937
22,CACACGTA,0.0249
23,GAACTCCA,-0.108
24,CCTGTCGC,-0.207
25,AGTCACTG,-0.108

row,Sequence,binding signal [E-score]
1,ATGAGCCG,-0.132
2,TGTAACAA,0.162
3,CACGAAGA,0.00904
4,ATCATCAT,0.179
5,GGAAGTCC,-0.155
6,CGCGTAGA,-0.0533
7,GATGGCAA,-0.13
8,CGCCGGGC,-0.359
9,ATCTTCTC,0.0728
10,AGCTCTTG,-0.0196
11,GTGGTCTA,0.0243
12,GCATGTAA,0.165
13,ACGACGAG,0.0239
14,AAACCATG,0.0884
15,AAGTGAAA,0.19
16,CATACCTA,0.334
17,AAACCCAT,-0.139
18,CGTCCAAC,-0.164
19,ACCATGAT,0.129
20,GAAATTAA,0.302
21,TAACTCGA,0.0667
22,ATGCTACG,0.0613
23,AGTTTTGC,0.173
24,ACGTTGAG,-0.059
25,TATCCTCA,0.092

row,Sequence,binding signal [E-score]
1,ACACAAGT,0.0703
2,AAGCGAAA,-0.0605
3,AGTCGCAA,-0.0221
4,AAATAATG,0.189
5,ATTAGTAC,0.3
6,CTCCTACC,-0.0309
7,CCAAGACC,-0.18
8,ATGTACAA,0.311
9,ACTGCCCG,-0.259
10,ACCTCTTG,-0.0052
11,GCCTCGAA,-0.0926
12,TACAGTCA,-0.014
13,AGACTCCC,-0.346
14,ATTACCCG,-0.0215
15,TACAGCGA,0.0967
16,ATTGACCA,0.138
17,ACGACTTA,0.132
18,CAGACGGA,-0.175
19,CGGAAGCC,-0.359
20,CTGTCCCA,-0.115
21,ATGTTACG,0.167
22,CAGTCTTC,-0.0238
23,ATGGCGTC,-0.204
24,GCAGTCAC,0.0327
25,CTACAAGC,0.195

row,Sequence,binding signal [E-score]
1,ATGAGTGC,0.0571
2,AAAGGCTT,-0.31
3,ATGCCTAC,0.131
4,AGGCTCGG,-0.353
5,GCTGAGCC,-0.159
6,AGTATGTG,0.249
7,ACACGGTC,-0.222
8,AAGAAACC,-0.0246
9,AAACTCTA,0.186
10,GACCTTTA,-0.0808
11,TCAGCTAA,0.0254
12,AGAAGTCG,-0.0803
13,ATGGAGAA,0.111
14,GGGACTCA,-0.275
15,CGCGAGAC,-0.109
16,GCCGGCTA,-0.265
17,CCGAGGGA,-0.143
18,ACGCCCAA,-0.176
19,ATGGGGTC,-0.3
20,CTTTACAA,0.143
21,AGATACCT,0.136
22,ATTGAAAC,0.0308
23,ATCAACGA,0.0269
24,ATTAGGGG,-0.305
25,ACTTTTCA,0.00763

row,Sequence,binding signal [E-score]
1,ACGCACAT,0.176
2,CGTTAGGA,-0.0421
3,AATCTGAT,0.0468
4,GTATGACA,0.0326
5,CCATTTCA,0.0264
6,CAAGGACC,-0.218
7,AATCACAA,0.217
8,AAACATTG,0.0309
9,ACTTCCGA,0.0719
10,AGAGACAC,0.0712
11,GCAGTAAC,0.138
12,AGAGCGTG,-0.0184
13,CAGCGGCC,-0.386
14,GTAGTTGA,0.241
15,CCGCAATA,0.0972
16,AACGGAAA,0.0411
17,ACTCTAAG,-0.163
18,CAAATTCC,-0.0577
19,ACATTCAC,0.0736
20,TCAGCGAA,-0.0379
21,GCCACTAC,0.00905
22,AGCTTTAC,0.0967
23,GCTTGTCA,-0.156
24,ATTAGGTA,0.247
25,ACGTCAAG,0.0301

row,Sequence,binding signal [E-score]
1,CGGTCCCC,-0.437
2,GAAGAGCC,-0.299
3,GAAAAGCA,-0.119
4,GCAAGTCA,-0.0021
5,ACAGCTGA,0.0846
6,AAGCTCTA,-0.0144
7,GTTCGGCA,0.0176
8,CCTCCCCA,-0.376
9,ACCTATAG,0.308
10,ATGCTTTC,0.0521
11,AAACACTA,0.183
12,GCACTGCA,-0.00139
13,AATGGGTC,-0.0106
14,ATTTGGAC,-0.0914
15,ATAGTTTG,0.364
16,GTTCAAAA,0.0113
17,GCCAGGGA,-0.302
18,CGGCAACA,-0.0449
19,CAGATGCG,-0.144
20,TATAGAGA,0.103
21,ATTTCAAG,0.0903
22,GAAAAATC,0.00856
23,ATAATGGA,0.205
24,CATATCGG,0.0529
25,AGCATTTC,-0.102

row,Sequence,binding signal [E-score]
1,CAGAAGGA,-0.293
2,CGCTCTAC,-0.0836
3,CATCAGGC,-0.154
4,AGATACCG,0.12
5,AATTGGCC,-0.129
6,ACCCAACT,0.216
7,CGCGAGAG,-0.176
8,CGCGTGCA,-0.0714
9,AATAGAAT,0.329
10,GCTCCGAA,-0.117
11,CCGAGAGA,-0.0914
12,AAGCTATC,0.218
13,AGACAGCG,-0.0894
14,GGACGCCA,-0.256
15,CCACAGCG,-0.201
16,ATCGCTGC,0.0638
17,CCCCAGAA,-0.332
18,CCTTCAGA,-0.26
19,ACATCTGA,0.222
20,CTAACCAG,0.0172
21,TGCCCGCA,-0.121
22,ACTAACCA,0.146
23,CAAGCTCC,-0.27
24,ATCCTCAC,-0.126
25,ACTCTACA,0.145

row,Sequence,binding signal [E-score]
1,AGCGACGG,-0.171
2,GCGAGTGA,-0.0766
3,ATACATAC,0.372
4,CAATGAAC,0.0385
5,GACCAGAA,-0.0532
6,GAGCCCCA,-0.397
7,CGCCGGAG,-0.106
8,CGATCCAA,-0.207
9,CGCCCAAG,-0.175
10,CTGTAGTC,0.175
11,GCATCGAC,0.0744
12,CAAAGTAC,0.0729
13,AACAGGGC,-0.232
14,CCATTGAC,0.0877
15,ATCCGAAT,0.0501
16,CGCTGGGC,-0.321
17,ATATAATA,0.452
18,AGATGGAA,-0.226
19,CCGCCTGA,-0.198
20,ACGGGCTG,-0.1
21,GACGCGCA,-0.296
22,TAAGCCTA,-0.0764
23,CATCTTAC,0.132
24,CGTTAGAA,-0.0404
25,CAGGTAAC,0.0478

row,Sequence,binding signal [E-score]
1,GGAATTAA,0.111
2,ACTGTATG,0.101
3,AGAGAAGG,-0.335
4,GAGAGTGA,-0.188
5,CTCTAACA,0.00593
6,ACGGAGAT,0.158
7,CAGATTAC,-0.0215
8,CACAGTTC,0.112
9,CCGTGCCA,-0.232
10,CTCAGGAA,-0.0328
11,ATTTATCC,0.156
12,ATCCAAAC,0.00735
13,CTACCGAA,0.231
14,CCGCCCAG,-0.271
15,AAGGCTTG,-0.235
16,ACTTGGGC,-0.191
17,AGTTCCAA,-0.0894
18,AATGTGCT,0.205
19,TACAGGAA,0.133
